About 1,800 (2.5%) of roughly 73,000 compounds were called active. This list was built around the results that the source calls inconclusive (neither active nor inactive); the mix of calls is not that of the screen. Calls come from the whole dose curve; as a rule, active = well fitted activation curve with a large enough effect; inconclusive = small, poorly fitted or top-dose-only effect; inactive = no such curve, though single readings can be large or run the other way. No potency is given beside an inconclusive call; the fits are too rough.
test: qHTS Assay for Agonists of the Thyroid Stimulating Hormone Receptor: Activators of Intracellular cAMP Concentrations in Parental HEK 293; conditions: parental HEK293 CNG cAMP sensor, membrane potential fluorescence; activation: at 57.1 µM (top of the series) unless noted; note: nearly all actives have a fitted effect of over 55% in size; for activation: % of control where 0% means no effect
How it was run: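 Parental HEK 293 cells stably expressing a modified CNG channel (no TSHR) report cAMP rise as membrane depolarization. Membrane potential dye with 100 uM RO 20-1724 was loaded for 60 min at room temperature, then compound added for 30 min; fluorescence read at 590 nm.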
Potency is the fitted concentration of half-maximal effect; tags give direction and shape of the fitted curve.

SMILES	Potency	activation
CNc1nc2c(c(=O)n(C)c(=O)n2C)n1Cc1ccccc1	inactive	–
O=C(Nc1ccccc1N1CCN(c2ccccc2)CC1)C1CCCCC1	active: 7.94 µM	–
O=C1COc2ccc(C(=O)CSc3nnc(-c4cccs4)n3Cc3ccccc3)cc2N1	inactive	–
COC(=O)C/C=C\[C@@H](C)[C@@H](/C=N\OC[C@@H](C)[C@H](OCc1ccccc1)C(C)C)NS(=O)(=O)c1ccc(C)cc1	–	inactive: -3% [at 11.4 µM]
COc1ccc(-c2nnc3sc(COc4ccc(C)cc4)nn23)cc1	active: 20 µM	–
Nc1c(C(=O)NC2CCCCC2)nsc1C(=O)OCC(=O)NC1CCCCC1	inconclusive [activator, partial curve]	–
CN1CCN(c2ncc3nc(-c4ccc(Cl)cc4)c(=O)n(CCC#N)c3n2)CC1	inconclusive [activator, single point]	–
O=C(COc1ccc(S(=O)(=O)N2CCCC2)cc1)NCCC1=CCCCC1	inconclusive [activator, single point]	–
c1ccc(Nc2cc(-c3ccoc3)ncn2)cc1	inactive	–
CC(C)Oc1cc2oc(=O)c3c(c2cc1Cl)CCC3	inconclusive [activator, single point]	–
O=C(CSc1nc2ccccc2c(=O)n1Cc1ccco1)N1CCCCCC1	inconclusive [activator, single point]	–
O=C(O)c1cc2c(cc1S(=O)(=O)O)[C@H]1[C@@H]([C@H]3[C@H]2[C@@]2(Cl)C(Cl)=C(Cl)[C@]3(Cl)C2(Cl)Cl)[C@]2(Cl)C(Cl)=C(Cl)[C@@]1(Cl)C2(Cl)Cl	–	inactive: 8.78% [at 11.4 µM]
CCCCCc1c(C)nc(Nc2nc(C)c3cc(OC)ccc3n2)[nH]c1=O	active: 10 µM	–
CCOC(=O)N1CCN(C(=O)c2cnn3c(C)c(Cc4ccc(C)cc4)c(C)nc23)CC1	inconclusive [activator, full curve, poor fit]	–
CC1(C)Oc2ccc(NC(=O)C3COc4ccccc4O3)cc2O1 (stereo not given)	inactive	–
O=C1CCCC=C1[C@H](O)CCCCBr	–	inactive: 2.69% [at 11.4 µM]
COc1ccc2[nH]c(=O)c(CN(Cc3ccccc3OC)Cc3nnnn3CC3CCCO3)cc2c1 (stereo not given)	inconclusive [activator, partial curve]	–
CCCN(S(=O)(=O)c1ccc(OCC)cc1)S(=O)(=O)c1cccs1	inconclusive [activator, single point]	–
CC(=O)C1=C(O)C(=O)N(CCN(C)C)C1c1ccc(Cl)cc1 (stereo not given)	inconclusive [activator, single point]	–
O=C(Oc1ccccc1)N1CCC2(CCCN(c3ncccn3)C2)CC1	active: 20 µM	–
CC(=O)OC[C@@H]1O[C@H](C/C=N\OC[C@@H](O)[C@H]2O[C@H]3OC(C)(C)O[C@H]3[C@@H]2O)C=C[C@@H]1OC(C)=O	–	inactive: 2.06% [at 11.4 µM]
Cn1c(=O)c2c(nc(CN3CCN(c4cccc(Cl)c4)CC3)n2CCc2ccccc2)n(C)c1=O	active: 7.94 µM	–
CCCCc1ccc(-c2ccc(C)cc2O)nc1	inactive	–
CC(=O)Nc1ccc(NC(=O)c2ccco2)cc1	inactive	–

SMILES	Potency	activation
COC(=O)CCc1c(C)c(C#N)c2nc3ccccc3n2c1N1CCCC1	inconclusive [activator, partial curve]	–
CCC(Sc1nc(C)cc(=O)[nH]1)C(=O)Nc1sc2c(c1C#N)CCCC2 (stereo not given)	inconclusive [activator, partial curve]	–
CCOC(=O)c1cnc(-n2nc(C)cc2C)nc1NC(C)c1ccccc1 (stereo not given)	active: 25.1 µM	–
NC(=O)c1ccsc1NC(=O)COc1ccccc1	inactive	–
Cc1ccccc1-c1nc(CS(=O)(=O)CC(=O)NCCN2CCOCC2)c(C)o1	inconclusive [activator, single point]	–
C=CC[C@@H]1C=C[C@@H](O/N=C(/C)CCC(=O)OC[C@@H]2O[C@H](C#Cc3ccccc3)C=C[C@@H]2Oc2ccc(C)cc2)[C@@H](CO)O1	–	inactive: 3.2% [at 11.4 µM]
N#CC1=C(N)SC(N)=C(C#N)C1CCc1ccccc1	inconclusive [activator, single point]	–
CCC(=O)Nc1nc2c(OC)ccc(C)c2s1	inconclusive [activator, partial curve]	–
O=C(OCc1ccc(F)cc1Cl)c1ccccn1	inactive	–
O=C(Nc1ccc2ccccc2c1)[C@H]1C[C@@H]1[C@H](NP(=O)(c1ccccc1)c1ccccc1)c1ccccc1	inactive	–
Cc1cc(N2CCN(c3ccccc3)CC2)nc(-c2ccccc2)n1	inconclusive [activator, single point]	–
COc1cccc(-n2nnc3c(=O)n(CC(=O)NCC4CCCO4)cnc32)c1 (stereo not given)	inconclusive [activator, single point]	–
O=C(CS(=O)(=O)c1ccccc1)c1ccc2c(c1)OCCO2	inactive	–
O=c1c(-c2ccc(F)cc2)nc2cnc(N3CCOCC3)nc2n1-c1ccccc1	inconclusive [activator, single point]	–
CCOC(=O)c1ccc(-n2c(N)c(C(=O)NCc3ccco3)sc2=S)cc1	inactive	–
CCOC(=O)N1CCC(Nc2nc3ccccc3n3nnnc23)CC1	inconclusive [activator, partial curve]	–
Cn1cc(SCC(=O)Nc2nc3ccccc3s2)c2ccccc21	inconclusive [activator, single point]	–
O=C(c1cnn2c(C(F)F)cc(-c3ccccc3)nc12)N1CCN2CCCC2C1 (stereo not given)	inconclusive [activator, partial curve]	–
COc1ccc(-c2n[nH]c(C)c2-c2ccc(Cl)cc2)c(O)c1OC	inconclusive [activator, single point]	–
CCc1nnc(NC(=O)c2ccc(N(C)S(=O)(=O)c3ccccc3)cc2)s1	inconclusive [activator, single point]	–
COC(=O)c1ccc(NC(=O)CN2CCN(c3ccccc3)CC2)cc1	inconclusive [activator, full curve, poor fit]	–
CC12CN3CC(C)(CN(C1)C3c1cc(Br)ccc1O)C2=O (stereo not given)	inconclusive [activator, single point]	–
CCCCSc1nnc(-c2ccc(C)cc2)o1	inconclusive [activator, partial curve]	–
COc1cccc(NS(=O)(=O)c2ccc(Br)s2)c1	inactive	–

SMILES	Potency	activation
COc1ccccc1C(=O)n1nc(-c2ccccc2)nc1NCc1ccco1	inconclusive [activator, partial curve]	–
CCCCCCC(=O)N1CCC(c2nc3c(nnn3Cc3ccccc3Cl)c(=O)[nH]2)CC1	inconclusive [activator, partial curve]	–
Cc1nc2sc3c(c2c2nc(-c4ccco4)nn12)CCCC3	active: 31.6 µM	–
COc1ccccc1C1SCCN1S(C)(=O)=O (stereo not given)	inconclusive [activator, single point]	–
Cc1ccc(S(=O)(=O)CCc2nc3ccccc3n2CCC#N)cc1	inconclusive [activator, single point]	–
CCCCN(C)C(=O)C(Cc1ccccc1)NS(=O)(=O)c1ccc2c(c1)CCC(=O)N2 (stereo not given)	inconclusive [activator, single point]	–
CCOc1ccc2[nH]c(=O)c(CN(Cc3cccs3)Cc3nnnn3C(C)(C)C)cc2c1	active: 25.1 µM	–
Cc1cccc(N2CCN(C(=O)C3CCN(S(=O)(=O)c4cccc5nsnc45)CC3)CC2C)c1 (stereo not given)	inactive	–
Cn1c(=O)n(CCCOc2ccc(Cl)cc2)c2ccccc21	inconclusive [activator, single point]	–
O=c1c(-c2ccccc2)nc2cnc(Oc3cccc(Cl)c3)nc2n1C1CC1	inconclusive [activator, full curve, poor fit]	–
NC(Cc1ccccc1)=NCC(=O)O	–	inactive: -1.62% [at 11.4 µM]
COC(=O)c1cc(OC)c(OC)cc1NC(=O)c1c(-c2ccccc2)noc1C	inconclusive [activator, single point]	–
Cc1ccc2[nH]c3nc(CCCn4ccnc4-c4ccccc4)nnc3c2c1	–	inactive: -3.14% [at 11.4 µM]
COCCNC(=O)C1(CC(C)C)C=CCN1C(=O)OC (stereo not given)	inconclusive [activator, single point]	–
Cc1nc2cnc(N3CCOCC3)nc2n(CCc2ccccc2)c1=O	active: 3.16 µM	–
Cc1ccc(N(CC(O)CN2CCCC2)S(=O)(=O)c2ccccc2)cc1 (stereo not given)	–	inactive: 9.44% [at 11.4 µM]
CC(C)C(C(=O)Nc1ccc2c(c1)OCO2)N1C(=O)c2ccccc2C1=O (stereo not given)	inconclusive [activator, partial curve]	–
CCCNC(=O)CS(=O)(=O)Cc1nc(-c2cccc(OC)c2)oc1C	inactive	–
O=C1C2C3C=CC(C3)C2C(=O)N1c1ccc2c(c1)CCC2 (stereo not given)	inconclusive [activator, single point]	–
COc1ccc2ccccc2c1C1CC(=O)N2CN(C3CCCCC3)CSC2=C1C#N (stereo not given)	inconclusive [activator, single point]	–
Cc1ccc(Cc2c(C)nc3nc(SCC(=O)NCc4ccco4)nn3c2C)cc1	active: 15.8 µM	–
CCOC(=O)C1CCN(C(c2ccc(OC)c(OC)c2)c2sc3nc(C)nn3c2O)CC1 (stereo not given)	inconclusive [activator, single point]	–

Source: PubChem BioAssay AID938 (National Center for Advancing Translational Sciences (NCATS), 2007)
